# Measured values from article PMC4336329 (PLoS ONE, 2015).
# Among all 310,000 compounds or so, about 2,200 (0.71%) showed an effect of 50% or more. Effects have a minus sign here. Some of the results follow.
# Biological target: human ether-à-go-go-related gene (hERG) potassium channel (human, UniProt Q12809)
# Experiment: primary screen, population patch clamp on CHO cells stably expressing hERG
# human ether-à-go-go-related gene (hERG) potassium channel, sequence (Q12809 whole entry, looked up): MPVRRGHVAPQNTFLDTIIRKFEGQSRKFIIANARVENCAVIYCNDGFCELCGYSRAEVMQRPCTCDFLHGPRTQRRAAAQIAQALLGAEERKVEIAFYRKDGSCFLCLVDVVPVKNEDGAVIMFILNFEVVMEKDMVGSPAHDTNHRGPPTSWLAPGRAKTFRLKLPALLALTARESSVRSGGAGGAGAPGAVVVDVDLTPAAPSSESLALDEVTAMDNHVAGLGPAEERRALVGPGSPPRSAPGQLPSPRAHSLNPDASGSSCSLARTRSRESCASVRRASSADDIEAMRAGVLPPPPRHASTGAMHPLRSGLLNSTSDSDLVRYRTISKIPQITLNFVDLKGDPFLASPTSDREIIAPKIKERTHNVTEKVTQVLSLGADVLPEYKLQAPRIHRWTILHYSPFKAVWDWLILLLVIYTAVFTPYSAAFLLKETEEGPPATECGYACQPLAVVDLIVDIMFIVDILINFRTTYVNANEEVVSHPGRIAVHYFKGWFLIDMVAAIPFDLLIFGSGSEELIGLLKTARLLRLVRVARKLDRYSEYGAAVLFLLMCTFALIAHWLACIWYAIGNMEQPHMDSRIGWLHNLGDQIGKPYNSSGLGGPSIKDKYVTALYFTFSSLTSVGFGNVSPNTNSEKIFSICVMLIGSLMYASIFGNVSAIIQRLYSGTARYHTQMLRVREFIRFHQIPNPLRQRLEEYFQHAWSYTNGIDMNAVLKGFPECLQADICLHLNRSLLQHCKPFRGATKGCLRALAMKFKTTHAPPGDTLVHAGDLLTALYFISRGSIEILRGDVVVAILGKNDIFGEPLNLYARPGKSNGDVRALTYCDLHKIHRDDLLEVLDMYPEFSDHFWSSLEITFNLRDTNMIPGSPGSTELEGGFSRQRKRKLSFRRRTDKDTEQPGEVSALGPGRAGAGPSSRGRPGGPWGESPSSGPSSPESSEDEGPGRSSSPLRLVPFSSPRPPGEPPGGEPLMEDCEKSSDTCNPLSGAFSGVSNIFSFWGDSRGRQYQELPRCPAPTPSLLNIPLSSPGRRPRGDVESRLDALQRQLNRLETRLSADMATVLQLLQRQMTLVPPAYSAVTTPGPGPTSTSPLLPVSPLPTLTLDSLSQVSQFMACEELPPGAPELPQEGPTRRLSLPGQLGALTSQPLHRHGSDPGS
row,Compound,"hERG current change (%, negative = inhibition) at 1uM [%]"
1,Cc1nc2nc(C)c(NS(=O)(=O)c3ccc(C(C)(C)C)cc3)c(=O)n2[nH]1,10.8
2,CC1(C)Cc2nc3sc4c(=O)n(CC(=O)NCc5ccccc5)cnc4c3cc2CO1,3.82
3,CC1CCCCN1C(=O)COC(=O)c1ccc(=O)n(Cc2ccccc2)n1 (stereo not drawn),3
4,O=C1CN=C(c2ccccc2)c2ccccc2N1,12
5,COc1ccc(C(=O)NCc2nnc(SC)n2C2CCCCC2)cc1,9.35
6,COc1ccccc1N1CCN(C(=O)c2ccc3nc(-c4ccco4)c(-c4ccco4)nc3c2)CC1,7.79
7,CSc1cccc(NC(=S)N(CCCN2CCCC2)Cc2cccs2)c1,-17.9
8,N#Cc1ccc(/C=C/C(=O)c2ccco2)cc1,5.85
9,O=C1CC2(CCN(C(=O)C(=O)c3c[nH]c4ccccc34)CC2)Oc2ccccc21,-0.76
10,CCCCc1ccc(N=N/C(C(=O)Nc2ccc(NC(C)=O)cc2OC)=C(/C)O)cc1,8.33
11,CCOC(=O)Cc1csc(NC(=O)c2cccc(N3C(=O)CCC3=O)c2)n1,5.7
12,COc1ccc(-c2nc(SCC(=O)N(CC(C)C)c3c(N)n(Cc4ccccc4)c(=O)[nH]c3=O)n[nH]2)cc1,1.09
13,CCCC/C=C/C(NC(=O)CCc1ccccc1)c1ccccc1 (stereo not drawn),1.65
14,C=CCc1cc(Cl)ccc1OCCCn1ccnc1.O=C(O)C(=O)O,7.27
15,COC(=O)COc1ccc(/C=N/NS(=O)(=O)c2ccccc2)cc1,15
16,Cc1ccc(SCCCCN2CCNCC2)cc1.O=C(O)C(=O)O,1.74
17,N#C/C(=C\c1ccncc1)c1nc2ccccc2o1,11.2
18,COc1ccc(/C=N/NC(=O)c2ccc3c(c2)OCCO3)c(OC)c1,16.3
19,CCOc1ccccc1CNC(=O)C1CCN(c2nn3c(=O)cc(C)nc3s2)CC1,-0.921
20,COc1ccc(N2C(=O)c3cccc4cc(Br)cc(c34)C2=O)cc1,4.08
21,CCNC(=O)COn1c(SCC(=O)NCC)nc2ccccc2c1=O,13.2
22,O=C(N/N=C/c1cc2c(cc1[N+](=O)[O-])OCO2)c1ccccn1,10.1
23,Cc1ccc(-c2nnn(CC(=O)N(CC3CCCO3)C(C(=O)NC3CCCC3)c3ccc(F)cc3)n2)o1 (stereo not drawn),18.4
24,O=C(/C=C/c1cccs1)Nc1ccc(S(=O)(=O)Nc2ncccn2)cc1,16.4
